# The list shows a part of the results.
# B1: SLR2P2A3 (Tachypleus tridentatus), TAL2_TACTR (protein)
# chain: MEKGTPPTHDSDNWMGRAKKIGNGGWNQFQFLFFDPNGYLYAVSKDKLYKASPPQSDTDNWIARATEIGSGGWSGSKFLFFHPNGYLYAVHGQRLYKALPPVSNQD
# Key:
# Test in all cases: glycan array binding signal (z-score within array); higher = stronger binding
# Details in all cases: glycan notation: IUPAC condensed, linker removed
# Fuc(a1-2)Gal = target: Fuc(a1-2)Gal
# Method in brief: (§1)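 Glycan array data were curated from 3228 arrays in the Consortium for Functional Glycomics database and kept only where the protein sequence was available. Glycan names were converted to IUPAC-condensed notation, and columns mapping to the same glycan were averaged. The binding signal is a within-array Z-score, averaged across arrays of the same protein sequence at different concentrations or buffers and across linkers. Negative Z-scores can be read as non-binding.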
# Fuc(a1-2)Gal(b1-3)GalNAc = target: Fuc(a1-2)Gal(b1-3)GalNAc
# Method in brief: as §1
# [1] = target: Fuc(a1-2)Gal(b1-3)GalNAc(b1-3)Gal
# Method in brief: as §1
# [2] = target: Fuc(a1-2)Gal(b1-3)GalNAc(b1-3)Gal(a1-4)Gal(b1-4)Glc
# Method in brief: as §1
# [3] = target: Fuc(a1-2)Gal(b1-3)GalNAc(b1-4)[Neu5Ac(a2-3)]Gal(b1-4)Glc
# Method in brief: as §1
# Fuc(a1-2)Gal(b1-3)GlcNAc = target: Fuc(a1-2)Gal(b1-3)GlcNAc
# Method in brief: as §1
# [4] = target: Fuc(a1-2)Gal(b1-3)GlcNAc(b1-3)Gal(b1-4)Glc
# Method in brief: as §1
# [5] = target: Fuc(a1-2)Gal(b1-3)[Fuc(a1-4)]GlcNAc
# Method in brief: as §1
# Fuc(a1-2)Gal(b1-4)Glc = target: Fuc(a1-2)Gal(b1-4)Glc
# Method in brief: as §1
# Fuc(a1-2)Gal(b1-4)Glc6S = target: Fuc(a1-2)Gal(b1-4)Glc6S
# Method in brief: as §1
# Fuc(a1-2)Gal(b1-4)GlcNAc = target: Fuc(a1-2)Gal(b1-4)GlcNAc
# Method in brief: as §1
# [6] = target: Fuc(a1-2)Gal(b1-4)GlcNAc(b1-3)Gal(b1-4)GlcNAc
# Method in brief: as §1
# [7] = target: Fuc(a1-2)Gal(b1-4)GlcNAc(b1-3)Gal(b1-4)GlcNAc(b1-3)Gal(b1-4)GlcNAc
# Method in brief: as §1
# [8] = target: Fuc(a1-2)Gal(b1-4)GlcNAc6S
# Method in brief: as §1
# [9] = target: Fuc(a1-2)Gal(b1-4)[Fuc(a1-3)]GlcNAc
# Method in brief: as §1
# [10] = target: Fuc(a1-2)Gal(b1-4)[Fuc(a1-3)]GlcNAc(b1-3)Gal(b1-4)[Fuc(a1-3)]GlcNAc
# Method in brief: as §1
# [11] = target: Fuc(a1-2)Gal(b1-4)[Fuc(a1-3)]GlcNAc(b1-3)Gal(b1-4)[Fuc(a1-3)]GlcNAc(b1-3)Gal(b1-4)[Fuc(a1-3)]GlcNAc
# Method in brief: as §1
# Fuc(a1-2)Gal6S(b1-4)Glc = target: Fuc(a1-2)Gal6S(b1-4)Glc
# Method in brief: as §1
# [12] = target: Fuc(a1-2)Gal6S(b1-4)Glc6S
# Method in brief: as §1
# [13] = target: Fuc(a1-2)Gal6S(b1-4)GlcNAc
# Method in brief: as §1
# Fuc(a1-2)[Gal(a1-3)]Gal = target: Fuc(a1-2)[Gal(a1-3)]Gal
# Method in brief: as §1
# [14] = target: Fuc(a1-2)[Gal(a1-3)]Gal(b1-3)GlcNAc
# Method in brief: as §1
# [15] = target: Fuc(a1-2)[Gal(a1-3)]Gal(b1-4)Glc
# Method in brief: as §1
# [16] = target: Fuc(a1-2)[Gal(a1-3)]Gal(b1-4)GlcNAc
# Method in brief: as §1
# [17] = target: Fuc(a1-2)[Gal(a1-3)]Gal(b1-4)[Fuc(a1-3)]GlcNAc
# Method in brief: as §1
# [18] = target: Fuc(a1-2)[Gal(a1-4)]Gal(b1-4)GlcNAc
# Method in brief: as §1
# [19] = target: Fuc(a1-2)[GalNAc(a1-3)]Gal
# Method in brief: as §1
# [20] = target: Fuc(a1-2)[GalNAc(a1-3)]Gal(b1-3)GlcNAc
# Method in brief: as §1
# [21] = target: Fuc(a1-2)[GalNAc(a1-3)]Gal(b1-4)Glc
# Method in brief: as §1
# [22] = target: Fuc(a1-2)[GalNAc(a1-3)]Gal(b1-4)GlcNAc
# Method in brief: as §1
# [23] = target: Fuc(a1-2)[GalNAc(a1-3)]Gal(b1-4)[Fuc(a1-3)]GlcNAc
# Method in brief: as §1
# [24] = target: Fuc(a1-2)[GalNAc(a1-4)]Gal(b1-4)GlcNAc
# Method in brief: as §1
# [25] = target: Fuc(a1-2)[GalNAc(b1-3)]Gal
# Method in brief: as §1
# Fuc(a1-3)GlcNAc = target: Fuc(a1-3)GlcNAc
# Method in brief: as §1
# [26] = target: Fuc(a1-3)[Gal(b1-4)]Glc6S
# Method in brief: as §1
# [27] = target: Fuc(a1-3)[Gal(b1-4)]GlcNAc
# Method in brief: as §1
# [28] = target: Fuc(a1-3)[Gal(b1-4)]GlcNAc(b1-2)Man(a1-3)[Fuc(a1-3)[Gal(b1-4)]GlcNAc(b1-2)Man(a1-6)]Man(b1-4)GlcNAc(b1-4)GlcNAc
# Method in brief: as §1
# [29] = target: Fuc(a1-3)[Gal(b1-4)]GlcNAc(b1-2)Man(a1-6)[Gal(b1-4)GlcNAc(b1-2)Man(a1-3)]Man(b1-4)GlcNAc(b1-4)GlcNAc
# Method in brief: as §1
# [30] = target: Fuc(a1-3)[Gal(b1-4)]GlcNAc(b1-3)Gal(b1-3)[Fuc(a1-4)]GlcNAc
# Method in brief: as §1
# [31] = target: Fuc(a1-3)[Gal(b1-4)]GlcNAc(b1-4)Gal(b1-4)[Fuc(a1-3)]GlcNAc
# Method in brief: as §1
# [32] = target: Fuc(a1-3)[Gal(b1-4)]GlcNAc(b1-4)Gal(b1-4)[Fuc(a1-3)]GlcNAc(b1-4)Gal(b1-4)[Fuc(a1-3)]GlcNAc
# Method in brief: as §1
# [33] = target: Fuc(a1-3)[Gal(b1-4)]GlcNAc6S
# Method in brief: as §1
# [34] = target: Fuc(a1-3)[Gal3S(b1-4)]Glc6S
# Method in brief: as §1
# [35] = target: Fuc(a1-3)[Gal3S(b1-4)]GlcNAc
# Method in brief: as §1
# [36] = target: Fuc(a1-3)[Gal3S(b1-4)]GlcNAc6S
# Method in brief: as §1
binder,measurement,setting,value
B1,glycan array binding signal (z-score),Fuc(a1-2)Gal,-0.04
same,glycan array binding signal (z-score),Fuc(a1-2)Gal(b1-3)GalNAc,-0.577
same,glycan array binding signal (z-score),[1],0.249
same,glycan array binding signal (z-score),[2],-0.208
same,glycan array binding signal (z-score),[3],-0.156
same,glycan array binding signal (z-score),Fuc(a1-2)Gal(b1-3)GlcNAc,-0.103
same,glycan array binding signal (z-score),[4],-0.003
same,glycan array binding signal (z-score),[5],-0.287
same,glycan array binding signal (z-score),Fuc(a1-2)Gal(b1-4)Glc,-0.411
same,glycan array binding signal (z-score),Fuc(a1-2)Gal(b1-4)Glc6S,-0.046
same,glycan array binding signal (z-score),Fuc(a1-2)Gal(b1-4)GlcNAc,-0.249
same,glycan array binding signal (z-score),[6],-0.353
same,glycan array binding signal (z-score),[7],-0.546
same,glycan array binding signal (z-score),[8],-0.249
same,glycan array binding signal (z-score),[9],-0.444
same,glycan array binding signal (z-score),[10],-0.48
same,glycan array binding signal (z-score),[11],-0.621
same,glycan array binding signal (z-score),Fuc(a1-2)Gal6S(b1-4)Glc,-0.125
same,glycan array binding signal (z-score),[12],-0.09
same,glycan array binding signal (z-score),[13],-0.306
same,glycan array binding signal (z-score),Fuc(a1-2)[Gal(a1-3)]Gal,-0.054
same,glycan array binding signal (z-score),[14],-0.291
same,glycan array binding signal (z-score),[15],-0.191
same,glycan array binding signal (z-score),[16],-0.228
same,glycan array binding signal (z-score),[17],0.119
same,glycan array binding signal (z-score),[18],-0.148
same,glycan array binding signal (z-score),[19],0.375
same,glycan array binding signal (z-score),[20],-0.284
same,glycan array binding signal (z-score),[21],0.698
same,glycan array binding signal (z-score),[22],1.17
same,glycan array binding signal (z-score),[23],-0.056
same,glycan array binding signal (z-score),[24],7.28
same,glycan array binding signal (z-score),[25],0.037
same,glycan array binding signal (z-score),Fuc(a1-3)GlcNAc,-0.603
same,glycan array binding signal (z-score),[26],-0.545
same,glycan array binding signal (z-score),[27],-0.187
same,glycan array binding signal (z-score),[28],-0.397
same,glycan array binding signal (z-score),[29],-0.56
same,glycan array binding signal (z-score),[30],-0.323
same,glycan array binding signal (z-score),[31],-0.31
same,glycan array binding signal (z-score),[32],-0.271
same,glycan array binding signal (z-score),[33],-0.305
same,glycan array binding signal (z-score),[34],0.193
same,glycan array binding signal (z-score),[35],-0.415
same,glycan array binding signal (z-score),[36],0.066

# Reference: the supplement of paper PMC8728848
